Data taken from PubChem BioAssay AID485281 (National Center for Advancing Translational Sciences (NCATS), 2010).
Hit rate of the full screen: of about 350,000 compounds, about 260 (0.074%) were called active. Inconclusive results, whose numbers are uncertain, are shown with a selection of clear calls. The call rests on the fitted dose curve; in most records, active means well fitted inhibition curve with a large enough effect; inconclusive means small, poorly fitted or top-dose-only effect; inactive means no such curve, though single readings can be large or run the other way. Where the call is inconclusive, the potency comes from a doubtful curve fit.

molecular target: Ferritin light chain (Equus caballus) (UniProt P02791); assay: qHTS Assay for Identification of Novel General Anesthetics; details: apoferritin/1-aminoanthracene competitive binding, fluorescence; activity change, negative = displacement: at 77.5 µM (top of the series); further: nearly all actives have a fitted effect of over 20% in size
Sequence of UniProt P02791 (P02791 whole entry, looked up): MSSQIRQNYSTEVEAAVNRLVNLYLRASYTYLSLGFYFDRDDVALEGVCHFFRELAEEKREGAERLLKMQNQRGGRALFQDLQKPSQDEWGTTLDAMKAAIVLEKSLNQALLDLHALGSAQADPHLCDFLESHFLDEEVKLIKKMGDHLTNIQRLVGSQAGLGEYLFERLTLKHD
Method in brief: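 10 uM apoferritin + 50% sat. 1-AMA, PBS; cpd 10 min RT; Ex380/Em535 endpoint; normalized to free probe vs complex; 4-param Hill fit; propofol titration as pos. ctrl.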
On the % scale 0 is the no-effect control and ±100 the full control effect; potency means the concentration at half of the fitted maximal effect; tags describe the fitted curve by direction and shape.

Structure (SMILES) | Potency | activity change, negative = displacement
N#C/C(=C/c1cn(-c2ccccc2)nc1-c1cccc(S(=O)(=O)N2CCCC2)c1)C(=O)NCc1ccco1 | inconclusive: 31.6 µM [inhibitor, partial curve] | –
CC(=O)c1c(N2CCN(c3ccccc3)CC2)nc(=S)n(-c2ccccc2)c1C | inconclusive: 25.1 µM [inhibitor, partial curve] | –
CCOC(=O)c1c(C)[nH]c(CCC(=O)NCCCN2CCN(c3cc(C)ccc3C)CC2)c1C | inconclusive: 20 µM [inhibitor, partial curve, poor fit] | –
O=C(CCC(=O)OC(C(=O)c1ccccc1)c1ccccc1)Nc1ccccc1 (configuration not stated) | inconclusive: 50.1 µM [inhibitor, single point] | –
Cc1ccc(S(=O)(=O)NCCSc2nncn2C)cc1 | – | inactive: 3.45%
CCOc1ccc(S(=O)(=O)N2CCN(c3ccc(Cl)c(Cl)c3)CC2)c2ccccc12 | inconclusive: 44.7 µM [inhibitor, partial curve] | –
CC(=O)OC(COc1ccccc1)Cn1cnc2cc(C)c(C)cc21 (configuration not stated) | inconclusive: 50.1 µM [inhibitor, partial curve] | –
Cc1c(C(=O)Nc2ccc(N3CCOCC3)cc2)oc2ccccc12 | inconclusive: 11.2 µM [inhibitor, partial curve] | –
COc1ccccc1N=CC1=C(O)CC(c2ccccc2)CC1=O (configuration not stated) | inconclusive: 31.6 µM [inhibitor, single point] | –
O=C(NNc1ccc([N+](=O)[O-])cc1[N+](=O)[O-])c1ccco1 | inconclusive: 28.2 µM [inhibitor, single point] | –
CCCCCCOc1ccc(/C(C)=N/NC2=NCCN2)cc1[N+](=O)[O-] | inconclusive: 25.1 µM [inhibitor, partial curve] | –
CC1CCCCN1C(=O)/C=C/c1ccccc1[N+](=O)[O-] (configuration not stated) | inconclusive: 39.8 µM [inhibitor, single point] | –
Cc1cccc(/C(N)=N/OC(=O)c2cccnc2)c1 | – | inactive: -12.7%
O=C(COc1ccc(Cl)cc1[N+](=O)[O-])N1CCCCCC1 | inconclusive: 35.5 µM [inhibitor, partial curve] | –
CCN(CC)CCCNC(=O)CCC(=O)Nc1ccc2nc(N3CCC(C)CC3)cc(C)c2c1 | – | inactive: 186%
C/C(Cc1ccccc1)=N\NC(=O)CNC(=O)Cc1ccc(Cl)cc1 | inconclusive: 56.2 µM [inhibitor, single point] | –
COC(=O)/C=C1\SC(=NC(=O)c2ccc(C)cc2)NC1=O | inconclusive: 50.1 µM [inhibitor, single point] | –
CCOc1ccccc1NC(=O)CCCc1nc2ccccc2c(=O)[nH]1 | – | inactive: -8.78%
CN1CC(=O)N(CC(=O)N2N=C(c3ccc(Cl)cc3)CC2c2ccco2)C1=O (configuration not stated) | inconclusive: 25.1 µM [inhibitor, single point] | –
O=C(O)c1ccccc1/C=N/NC(=O)c1cc(-c2ccco2)nc2ccccc12 | – | inactive: 34.7%
COc1ccc(N(Cc2cc3ccc(C)cc3[nH]c2=O)C(=O)C2CCCO2)cc1 (configuration not stated) | – | inactive: -0.371%

Structure (SMILES) | Potency | activity change, negative = displacement
Cc1ccccc1Nc1nc(N)nc(CSc2nnnn2-c2ccccc2)n1 | inconclusive: 28.2 µM [inhibitor, partial curve] | –
O=C1C(Nc2ccccc2)=C(N2CCCCC2)C(=O)c2ccccc21 | inconclusive: 39.8 µM [inhibitor, single point] | –
COC(=O)C(NC(=O)c1ccco1)(Nc1ccc(Br)cn1)C(F)(F)F (configuration not stated) | inconclusive: 25.1 µM [inhibitor, partial curve] | –
COc1ccc(OCC(=O)N/N=C2\CCc3ccccc32)cc1 | inconclusive: 28.2 µM [inhibitor, partial curve] | –
COc1cc(NCCCC(C)N)c2ncccc2c1 (configuration not stated) | inconclusive: 39.8 µM [inhibitor, single point] | –
CN(C)CC(O)COC(c1ccc(Cl)cc1)c1ccc(Cl)cc1 (configuration not stated) | – | inactive: -6.61%
Cc1cc(NC(=O)CSc2nc3c(C)cccc3cc2C#N)no1 | – | inactive: 2.17%
COC(=O)c1ccc(-n2c(/C=C\c3cccc(Br)c3)nc3ccccc3c2=O)cc1 | – | inactive: -1.96%
CC1CCN(C2(O)C(=O)Nc3ccc([N+](=O)[O-])cc32)CC1 (configuration not stated) | inconclusive: 39.8 µM [inhibitor, partial curve] | –
Cc1cc([N+](=O)[O-])ccc1NC(=S)NC(=O)Cc1ccccc1 | inconclusive: 28.2 µM [inhibitor, partial curve] | –
CCN1C(C(=O)c2ccccc2)=C(OC(=O)C(C)C)c2ccccc2S1(=O)=O | inconclusive: 28.2 µM [inhibitor, partial curve] | –
CC(C)CCNC(=O)C1CCCN(S(=O)(=O)c2ccc3c(c2)CC(C)N3C(=O)C2CC2)C1 (configuration not stated) | inconclusive: 35.5 µM [inhibitor, single point] | –
CC(C)NC(=S)NNC(=O)C12CC3CC(CC(C3)C1)C2 | inconclusive: 12.6 µM [inhibitor, partial curve] | –
Cc1ccc(C(=O)NCC(=O)OCc2csc(-c3ccccc3)n2)cc1 | inconclusive: 25.1 µM [inhibitor, partial curve] | –
CCOC(=O)CNc1nc(Cl)nc(Nc2ccc(OC)cc2OC)n1 | inconclusive: 44.7 µM [inhibitor, partial curve] | –
O=C(COc1c(F)c(F)cc(F)c1F)NC(=O)NC1CCCC1 | inconclusive: 35.5 µM [inhibitor, single point] | –
C/C(=N\Nc1ccc([N+](=O)[O-])cc1)c1cccc(N)c1 | inconclusive: 25.1 µM [inhibitor, partial curve] | –
COc1ccc(CNC[C@@H](CCCCN(C)Cc2ccc(OC)cc2)N2C[C@H](c3ccccc3)N(CCc3ccc(Cl)c(Cl)c3)C(=O)C2=O)cc1 | inconclusive: 15.8 µM [inhibitor, partial curve] | –
COc1ccc(-c2[nH]ncc2/C=N\NS(=O)(=O)c2ccccc2)cc1OC | inconclusive: 35.5 µM [inhibitor, single point] | –
Oc1[nH]c2ccccc2c1N=NC(=S)NCC1CCCO1 (configuration not stated) | inconclusive: 35.5 µM [inhibitor, partial curve] | –
Cc1ccc(S(=O)(=O)Nc2ccc3c(c2)CCC3)cc1 | inconclusive: 28.2 µM [inhibitor, single point] | –
